The other results are listed elsewhere or left out.

Assay [1] has as its system HSkMC (human skeletal muscle cells). Kind of assay: cytotoxicity call (relative viability < 0.9). The settings on record: 10 µM.
The test system of assay [2] is HepG2. The experiment in a line: cytotoxicity call (relative viability < 0.9). The conditions noted are these: 10 µM.
For assay [3], the system named is S. aureus RN4220. Kind of assay: growth inhibition call (relative growth <= 0.2). The conditions noted are these: 50 µM.

As to `COc1ccc(S(=O)(=O)Nc2ccc3c(c2)C(=O)N([C@@H](C)CO)C[C@@H](C)[C@@H](CN(C)S(C)(=O)=O)O3)cc1`, the cytotoxicity call in assay [1] and in assay [2] was “inactive” in each case. Besides, the growth inhibition call in assay [3] was “inactive”.

As to `C[C@@H]1CN([C@H](C)CO)S(=O)(=O)c2ccc(C#CCN(C)C)cc2O[C@H]1CN(C)Cc1ccccc1F`, the cytotoxicity call in assay [1] and in assay [2] was “inactive” in each case. Also, the growth inhibition call in assay [3] was “inactive”.

Take `C[C@H](CO)N1C[C@H](C)[C@H](CN(C)C(=O)Nc2ccc(C(F)(F)F)cc2)OCCCC[C@H](C)Oc2ccc(NS(=O)(=O)c3ccccc3)cc2C1=O`: the cytotoxicity call in assay [1] and in assay [2] was “inactive” throughout. In assay [3], the growth inhibition call was “inactive”.

In the case of `C[C@@H]1CCCCO[C@@H](CN(C)Cc2ccncc2)[C@@H](C)CN([C@@H](C)CO)C(=O)c2cc(NS(=O)(=O)c3ccc(Cl)cc3)ccc2O1`, the cytotoxicity call in assay [1] and in assay [2] was “inactive” each time. In addition, in assay [3], the growth inhibition call is “inactive”.

In the case of `C[C@@H]1CCCCO[C@@H](CN(C)Cc2ccc3c(c2)OCO3)[C@@H](C)CN([C@@H](C)CO)C(=O)c2cc(NC(=O)Nc3ccccc3)ccc2O1`, the cytotoxicity call in assay [1] was “inactive”. For the same compound, the cytotoxicity call in assay [2] is “active”. Further, the growth inhibition call in assay [3] was “inactive”.

For the compound `COc1ccc(S(=O)(=O)Nc2ccc3c(c2)C(=O)N([C@@H](C)CO)C[C@@H](C)[C@@H](CN(C)C(=O)Nc2ccc(C(F)(F)F)cc2)OCCCC[C@H](C)O3)cc1`, the cytotoxicity call in assay [1] and in assay [2] was “inactive” in each case. In assay [3], the growth inhibition call is “inactive”.

On to `COc1ccc(CCNC(=O)[C@@H]2c3ccccc3C(=O)N(CC34CC5CC(CC(C5)C3)C4)[C@H]2c2ccc(CO)cc2)cc1`, for which the cytotoxicity call in assay [1] and in assay [2] was “inactive” in each case. The growth inhibition call in assay [3] was “inactive”.

For the compound `C[C@H](CO)N1C[C@H](C)[C@H](CN(C)S(C)(=O)=O)Oc2c(NS(C)(=O)=O)cccc2C1=O`, the cytotoxicity call in assay [1] and in assay [2] was “inactive” each time. In assay [3], the growth inhibition call was “inactive”.

Regarding `Cc1ccc(CCSc2ccc(Cl)c(Cl)c2)cn1`, in assay [1], the cytotoxicity call was “inactive”. Besides, in assay [2], the cytotoxicity call is “active”. Further, in assay [3], the growth inhibition call is “inactive”.

For `O=c1oc2c(O)c(O)cc3c(=O)oc4c(O)c(O)cc1c4c23`, the cytotoxicity call in assay [1] is “inactive”. In assay [2], the cytotoxicity call was “active”. For the same compound, the growth inhibition call in assay [3] was “inactive”.

`C[C@@H]1CCCCO[C@@H](CN(C)CC2CCCCC2)[C@@H](C)CN([C@H](C)CO)C(=O)c2cc(NC(=O)CCC(F)(F)F)ccc2O1`: the cytotoxicity call in assay [1] and in assay [2] was “inactive” in each case. The growth inhibition call in assay [3] is “inactive”.

As to `Cc1ccc(S(=O)(=O)N(C)C[C@@H]2Oc3ccc(NS(=O)(=O)c4cn(C)cn4)cc3C(=O)N([C@@H](C)CO)C[C@@H]2C)cc1`, the cytotoxicity call in assay [1] and in assay [2] was “inactive” in each case. For the same compound, the growth inhibition call in assay [3] was “inactive”.

With `C=CC(C)(O)CCC1C(=C)CC(OC(C)=O)C2C(C)(C)CCCC12C` (configuration not stated), the cytotoxicity call in assay [1] and in assay [2] was “inactive” in each case. For the same compound, the growth inhibition call in assay [3] is “inactive”.

In the case of `Cc1c(C(N)=O)cc([N+](=O)[O-])cc1[N+](=O)[O-]`, the cytotoxicity call in assay [1] and in assay [2] was “inactive” throughout. For the same compound, in assay [3], the growth inhibition call is “inactive”.

On to `COCCNC(=O)C[C@H]1CC[C@@H]2[C@H](COC[C@H](O)CN2C(=O)Nc2ccc3c(c2)OCO3)O1`, for which the cytotoxicity call in assay [1] and in assay [2] was “inactive” each time. For the same compound, in assay [3], the growth inhibition call is “inactive”.

In the case of `C[C@@H]1CN([C@@H](C)CO)S(=O)(=O)c2ccc(-c3ccncc3)cc2O[C@@H]1CN(C)Cc1ccc(Oc2ccccc2)cc1`, the cytotoxicity call in assay [1] and in assay [2] was “inactive” throughout. Moreover, the growth inhibition call in assay [3] was “inactive”.

As to `CN1CCN(C(=O)C[C@@H]2CC[C@@H]3[C@H](COC[C@H](O)CN3C(=O)C3CC3)O2)CC1`, the cytotoxicity call in assay [1] and in assay [2] was “inactive” throughout. For the same compound, in assay [3], the growth inhibition call was “inactive”.

As for `COCCn1c(N)c(N(Cc2ccccc2)C(=O)C2=COCCO2)c(=O)[nH]c1=O`, the cytotoxicity call in assay [1] and in assay [2] was “inactive” in each case. Further, the growth inhibition call in assay [3] is “inactive”.

Consider `CN1CCN(C(=O)C[C@H]2CC[C@H]3[C@@H](COc4ccc(NC(=O)c5ccc(F)c(F)c5)cc4C(=O)N3C)O2)CC1`, for which the cytotoxicity call in assay [1] and in assay [2] was “inactive” throughout. In addition, the growth inhibition call in assay [3] is “inactive”.

On to `Cc1ccc(S(=O)(=O)N(C)C[C@H]2Oc3ccc(NS(=O)(=O)c4ccc(F)cc4)cc3C(=O)N([C@@H](C)CO)C[C@@H]2C)cc1`, for which the cytotoxicity call in assay [1] and in assay [2] was “inactive” throughout. In assay [3], the growth inhibition call was “inactive”.

In the case of `CCCNC(=O)N(C)C[C@H]1Oc2cc(-c3ccccc3F)ccc2S(=O)(=O)N([C@H](C)CO)C[C@@H]1C`, the cytotoxicity call in assay [1] and in assay [2] was “inactive” in each case. Moreover, the growth inhibition call in assay [3] is “inactive”.

`O=C(O)[C@H]1C2C(=O)N3CCCO[C@@H]3[C@]23C=C[C@H]1O3` (some centres not stated): the cytotoxicity call in assay [1] and in assay [2] was “inactive” each time. For the same compound, the growth inhibition call in assay [3] is “inactive”.

As for `COc1ccc(CN(C)C[C@@H]2OCCCC[C@@H](C)Oc3ccc(NC(=O)NC4CCCCC4)cc3C(=O)N([C@@H](C)CO)C[C@H]2C)cc1`, the cytotoxicity call in assay [1] and in assay [2] was “inactive” throughout. In addition, the growth inhibition call in assay [3] is “inactive”.

In the case of `C[C@@H]1CN([C@H](C)CO)C(=O)c2cc(NC(=O)Nc3ccc4c(c3)OCO4)ccc2O[C@H]1CN(C)Cc1ccc(Oc2ccccc2)cc1`, the cytotoxicity call in assay [1] and in assay [2] was “inactive” in each case. Besides, the growth inhibition call in assay [3] was “inactive”.

`CCOC(=O)c1cc2c(c(-c3ccccc3)n1)[C@@H](CCO[Si](C)(C)C(C)(C)C)N(S(=O)(=O)C(C)(C)C)C2`: the cytotoxicity call in assay [1] and in assay [2] was “inactive” throughout. Further, the growth inhibition call in assay [3] was “inactive”.

As to `CCc1nc2ccc(C(=O)NC3CCN(Cc4ccccc4)CC3)cn2c1N(C)Cc1cc2ccccc2s1`, the cytotoxicity call in assay [1] and in assay [2] was “active” each time. The growth inhibition call in assay [3] is “inactive”.

For `OCC(O)C(O)C(OC1OC(CO)C(O)C(O)C1O)C(O)CO` (configuration not stated), the cytotoxicity call in assay [1] and in assay [2] was “inactive” in each case. In assay [3], the growth inhibition call is “inactive”.

Turning to `C[C@H]1CN([C@@H](C)CO)C(=O)Cc2cc(NC(=O)Cn3cnnn3)ccc2O[C@H]1CN(C)S(=O)(=O)c1ccc(F)cc1`, the cytotoxicity call in assay [1] and in assay [2] was “inactive” throughout. Moreover, the growth inhibition call in assay [3] is “inactive”.

On to `CC(C)(C)S(=O)N1Cc2cc(C(=O)Nc3ccc(-c4ccccc4)cc3)nc(-c3cccc(-c4cccc(F)c4)c3)c2[C@@H]1CCO` (some centres not stated), for which the cytotoxicity call in assay [1] and in assay [2] was “active” each time. In addition, in assay [3], the growth inhibition call was “inactive”.

Source of the values: the antibiotic and cytotoxicity screens of Wong et al. (2023).
